Test results as given in patent US11098072B2, “Alkenyl and beta-substituted phosphonates as antimicrobial agents” (The George Washington University, priority 2017, dated 2021).
Where two headings read alike, the source gives them in different places.

Test system: P. falciparum strain 3D7

O=CN(O)C/C=C/P(=O)([O-])O.[Na+] [Compound 12a, Sodium hydrogen [(1E)-3-(N-hydroxyformamido)prop-1-en-1-yl]phosphonate]
rescue of parasite growth by exogenous IPP (strain 3D7, growth by PicoGreen after 72 h): effectively rescues growth

CC(=O)N(C/C=C/P(=O)([O-])O)OCc1ccc(C(C)C)cc1.[Na+] [Compound 16e, Sodium hydrogen [(1E)-3-(N-{[4-(propan-2-yl)phenyl]methoxy}acetamido)prop-1-en-1-yl]phosphonate]
rescue of parasite growth by exogenous IPP: restored by IPP supplementation

CC(C)(C)C(=O)OCOP(=O)(/C=C/CN(O)C=O)OCOC(=O)C(C)(C)C [Compound 18a, [({[(2,2-dimethylpropanoyl)oxy]methoxy}[(1E)-3-(N-hydroxyformamido)prop-1-en-1-yl]phosphoryl)oxy]methyl 2,2-dimethylpropanoate]
rescue of parasite growth by exogenous IPP: effectively rescues growth

O=C(c1ccccc1)N(O)C/C=C/P(=O)([O-])O.[Na+] [Compound 32a, Sodium hydrogen [(1E)-3-(N-hydroxy-1-phenylformamido)prop-1-en-1-yl]phosphonate]
rescue of parasite growth by exogenous IPP: rescues growth

CC(C)(C)C(=O)OCOP(=O)(/C=C/CN(O)C(=O)c1ccccc1)OCOC(=O)C(C)(C)C [Compound 33a, [({[(2,2-dimethylpropanoyl)oxy]methoxy}[(1E)-3-(N-hydroxy-1-phenylformamido)prop-1-en-1-yl]phosphoryl)oxy]methyl 2,2-dimethylpropanoate]
rescue of parasite growth by exogenous IPP: rescues growth

O=CN(O)CCCP(=O)(O)O [Fosmidomycin, reference compound]
rescue of parasite growth by exogenous IPP: restoration effect
